This is one part of the list. At the low end of the ranking the order means little. Measured with an extract: partners may take part in the binding.

Our source for the binding signal (log2 normalized intensity) values is publication PMC10726135.

In this assay the target is T1, HNF4alpha2 (COS-7 nuclear extract) (UniProt P41235).
T1 sequence: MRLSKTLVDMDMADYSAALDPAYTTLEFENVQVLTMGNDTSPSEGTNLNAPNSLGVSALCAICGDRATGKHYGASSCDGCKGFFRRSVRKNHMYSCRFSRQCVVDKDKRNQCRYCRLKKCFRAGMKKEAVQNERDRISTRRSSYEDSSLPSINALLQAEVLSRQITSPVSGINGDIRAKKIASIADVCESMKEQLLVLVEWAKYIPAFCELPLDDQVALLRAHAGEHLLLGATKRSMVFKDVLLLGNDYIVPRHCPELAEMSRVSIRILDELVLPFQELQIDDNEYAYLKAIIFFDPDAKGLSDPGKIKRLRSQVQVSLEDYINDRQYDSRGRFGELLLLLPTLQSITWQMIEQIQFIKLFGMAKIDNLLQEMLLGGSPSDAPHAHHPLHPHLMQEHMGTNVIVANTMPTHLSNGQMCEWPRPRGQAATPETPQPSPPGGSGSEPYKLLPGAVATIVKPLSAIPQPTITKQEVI
Briefly: protein-binding microarray. The settings on record: COS-7 nuclear extract on double-stranded Agilent 4x180k PBM; binding buffer, salt, pH and temperature not given; high values mean tight binding; double strand, one strand shown; sequences stand for … in …GCCTAGGGAGATTAGAGTATCGGTCGA
With TGACGCTTTAAGTAGGCACTATTATCCCCC, the binding signal (log2 normalized intensity) was 3.35. Consider TGCTCTTATTGATTGCCTTTCATGTACTGT, for which the binding signal (log2 normalized intensity) is 2.49. On to ATATGAAAACAAAGGAAACCAAACATTGAA, for which the binding signal (log2 normalized intensity) was -1.06. Take CAAATAAAGTTTGAGGAGAGTCAAAGGTTA: the binding signal (log2 normalized intensity) is 3.24. For the sequence CCACACAAACCCAGTTTGCATTTTCATGGA, the binding signal (log2 normalized intensity) worked out at 0.36. For TGTTTGCACTGAGGAATGGAAGGACCTTGG the value was 1.53.

For the sequence TTTGCCCTTTGAGCTTCTGTCTTGGACTGC, the binding signal (log2 normalized intensity) turned out to be 3.59. For the sequence TTGCAGACTGGTTCTTGGTCAGCTCCTGGG, the binding signal (log2 normalized intensity) is -0.63. With CAAGAAACCTTTCCCTCTCTCCTGGTTTGG, the binding signal (log2 normalized intensity) came out at 1.5. Take AGTTTTTCCCCTTGGTGGATTCCGTGGTAA: the binding signal (log2 normalized intensity) was 2.

As to TGCGCATGTTCCCACGAAACCCTAAACCTG, the binding signal (log2 normalized intensity) is -1.13. For the sequence GAGCTGTGATTGCGCCACTGTACTCCTGTC, the binding signal (log2 normalized intensity) was -0.13. For the sequence CAGTCCCTGTACACGGTTCTTGACCTGTGA, the binding signal (log2 normalized intensity) stood at 3.61. For the sequence AGCGGCAGCGCCTCCCGGTCACTACAACAA, the binding signal (log2 normalized intensity) was -1.19. On to GGCCTGCAAGCTCCTGGTTGGGGCCTCCCT, for which the binding signal (log2 normalized intensity) is -1.21. As for TCCCACCGTGTGTGCACTTTAAATTAATCT, the binding signal (log2 normalized intensity) came to 0.673. In the case of GGGCTTAATCTTTCCTGCCTGCCGGCTCTG, the binding signal (log2 normalized intensity) was -1.12. Consider GAATGCACCCTTTTGACCACACAGCAAGGC, for which the binding signal (log2 normalized intensity) came to 0.133.

AGGAAGGACATGGTAAAGATGACCAGCGTG: the binding signal (log2 normalized intensity) was -1.08. Consider CCTTTGGAGGGGAAGCTGGGCAGGCGCCGA, for which the binding signal (log2 normalized intensity) is -1.15. For GGATTAACCACAGAAATGCCGCTAATGTAT, the binding signal (log2 normalized intensity) was -0.192. Turning to CTTTAAACATTCTTCTCAGTGTTTTGGGTC, the binding signal (log2 normalized intensity) came out at 2.04. Consider CTCTAAGCACGGCCAGGATTAACCACAGAA, for which the binding signal (log2 normalized intensity) is -1.2.

Turning to TCCTAATGCCCAAATGAATAATCCCCTCCT, the binding signal (log2 normalized intensity) was 3.67. For ACAACTTTCATTGAACTGCTGGGGGTAAAG, the binding signal (log2 normalized intensity) was found to be 0.398. Turning to AACCTTCATCTCTCTTTGTTGACATCTGCT, the binding signal (log2 normalized intensity) worked out at 0.528.

With GGTTGCCCAGGGAGAGCTGGACTTTCATCT, the binding signal (log2 normalized intensity) was determined as 4.77. As to TGCTAACAATGTGATTTATGAAGGGGGGTG, the binding signal (log2 normalized intensity) was -0.919. On to TCCTCTCAAAGTCCACCCGGCCAGCAGATG, for which the binding signal (log2 normalized intensity) is 2.46. As for GAAGGCCCTGAACTCCCAGCCTCCAAGATG, the binding signal (log2 normalized intensity) amounted to 0.413.

Regarding TACAGACAGAAGCCAGAGGCAGCAAGGTCA, the binding signal (log2 normalized intensity) is -1.06. Regarding TGCCCTTTGGCCCCCAGAGCCCCGTGTCTC, the binding signal (log2 normalized intensity) was 4.76. Regarding TACTAGCCATTTCGGCACCTTCTACACAGC, the binding signal (log2 normalized intensity) was -0.612. For the sequence TCTCTGTAAACTGGCCAGAAGGTCAGAGAT, the binding signal (log2 normalized intensity) was determined as 1.66. Turning to CTCCTCCCCTTGAGACTTTAATCTCTCCTC, the binding signal (log2 normalized intensity) amounted to 2.07.

In the case of TGGGAAGTCCAAAGTCTGCAGGGTAGGCAG, the binding signal (log2 normalized intensity) was determined as 2.39. Turning to ATTCTCTGGAAAAGGTCTGCTGTACATATT, the binding signal (log2 normalized intensity) was 1.64.

As to GAAGAAGTGTTAAGGACAACCGGTAGCACA, the binding signal (log2 normalized intensity) was -0.995.

On to GCCATCCAGGGCATTGCCGTTCAGGGCCAC, for which the binding signal (log2 normalized intensity) is -1.16. As to GCCTGACTCCCTGACGCCATCTGGCGTCCC, the binding signal (log2 normalized intensity) was -0.532. Turning to CAGAGGTCAAGGCTGCAGCGAGCCACTGTA, the binding signal (log2 normalized intensity) is -1.21.

Turning to CCCCCATTAGAGGCACACTCTATTATGTAA, the binding signal (log2 normalized intensity) is 1.9.

As for ACTCCACATATTGTAGATAATACTGTGTCA, the binding signal (log2 normalized intensity) came to 0.275. For CATCTTTATCATGTGGTATTAACATGTAAA the value was 1.61.

As to TTCAGTCGGCTCTCAGCGGAACTTTCCTCT, the binding signal (log2 normalized intensity) is -1.24.

For TTGGGTGGAGGGGAGGTTATCTTGGGGCTG, the binding signal (log2 normalized intensity) is -1.21. On to TTAACAGATGAGGACATTTCAGCAAAGTTC, for which the binding signal (log2 normalized intensity) is -0.483. In the case of ATGCCCTTATCTCATACCTTGCATGCACAA, the binding signal (log2 normalized intensity) amounted to 0.992. Regarding CATGTGGGTCAACAGACAAATGAAAGAGCT, the binding signal (log2 normalized intensity) was -0.927.

Regarding AGTTTGAAGCTTAGAGAGAGAAATTGCTTA, the binding signal (log2 normalized intensity) is -1.13. In the case of TTGAATCCTTATCTGTAGAAGGCAAAGCTT, the binding signal (log2 normalized intensity) is -1.16. The result for TTGACTTTTTGTGGGGGCAGATGTTTCTTT reads 2.03; that for TTACGGGCAGAGCTGGGGTGCCTGATAATG, -0.34; that for CAGGCACATTCCAGGACCTTTGCTCATGTC, 2.81.

As to TGTCCCTCCTGACCTTTGGACTTGATAGAG, the binding signal (log2 normalized intensity) turned out to be 9.11. For ACCAAGGAGGTGCTGACAGGCCCTCTGATA, the binding signal (log2 normalized intensity) is -1.04. In the case of ACAGCCACATGCTAACACACCTGGCTATTC, the binding signal (log2 normalized intensity) is -1.12. The result for TGTCATGACCTTCGCTCTTGATGGGTTTGC reads 3.01. For GGTGTGAATATTTAAGATTCCAGCTCTCGG the value was -1.08; for CCGTCTCTCACCAAATCCCTGCCCACATCC, 2.61. As to ATGTTTGGGAGCCTTGCACACTCGCCTGGC, the binding signal (log2 normalized intensity) is -1.09.

For the sequence TGAAGCTTGCAACAAAGGGGTTTCTAAGAA, the binding signal (log2 normalized intensity) is -1.32. Turning to GACCCTTGCACTCATACTTGAAGACATTCC, the binding signal (log2 normalized intensity) came to 2.74. For the sequence GACAGCAGTAGAAAACAGAGAAGCCGTGGT, the binding signal (log2 normalized intensity) was -1.04. In the case of AATCAACCTTTGATCGTTTGCATGCAGGGC, the binding signal (log2 normalized intensity) is 3.25. For CAGAATTACTGACTCCACAGTGGGGCAGAT, the binding signal (log2 normalized intensity) is -0.989. Regarding GATACAACGGTTCAAAGGACAGACTTTGGA, the binding signal (log2 normalized intensity) worked out at 3.39.

AAAGCCTAGGCTCCAGGGCACTGCCCTTTG: the binding signal (log2 normalized intensity) came out at 3. With AAGAAAGGGGAGATAATGCCAGAAAGGTCT, the binding signal (log2 normalized intensity) was -1.06.

On to AAGTGCGTCCTGTGGCAAAGGTGAATGACC, for which the binding signal (log2 normalized intensity) was 2.58. For CAAAACCCAGTTCATAGGTCAATTCTTTGA, the binding signal (log2 normalized intensity) turned out to be 2.88.

As to TACTCTCTCTTCTGGAGGAGGATCAGGTTT, the binding signal (log2 normalized intensity) was 1.47. As for GTGTGTGGCCTGCACAGTTGCACAATGTCA, the binding signal (log2 normalized intensity) is -0.828. On to TTTGTAAGTACATTAATATACTGTGTATAC, for which the binding signal (log2 normalized intensity) worked out at 1.24. For GAAATCTCAGTCAAATGCAAAGGCAAACAG, the binding signal (log2 normalized intensity) is 0.26.

Regarding GATGAATAGGGACGTTCTACTTGTTAGTAA, the binding signal (log2 normalized intensity) was found to be 0.842. With AATCGCATTGCAAAATCCATCTAAATGGCA, the binding signal (log2 normalized intensity) is -0.83.

Take TGATCTTTGAAACATAACAGCAACAACACA: the binding signal (log2 normalized intensity) is 0.541.

Consider GCTCTAGACATCGACCTTTGTGGGCTTCAG, for which the binding signal (log2 normalized intensity) was 2.69.

Turning to GGGGAAAGAGCTGAGGAAAAAAGTTTGAAA, the binding signal (log2 normalized intensity) was -1.12.

Take ATGGTGGAGGGTCTTGCTTTGATGTTGATG: the binding signal (log2 normalized intensity) worked out at 1.58. The result for TATCTTGTGACCTTTGACTCATTATCCCCC reads 6.24. In the case of GGTTTTCACAACCTCCCTTTGAAGGAGCCA, the binding signal (log2 normalized intensity) is -1.08. The result for AAACCTTTAATGATGAGTCCAAGTTCCACA reads 2.31; that for CCCCACTCCACCTACGCTACGCACCAGGCA, -0.756.

As to TATATTCAACCCCCACTTCCTGACTTGGCC, the binding signal (log2 normalized intensity) was 3.6. On to TGCAGAGCTTAGTTTGCCACGGTCAGCAAT, for which the binding signal (log2 normalized intensity) is -0.852. CAACCCAAAGCATGTCCAGAATCCTAACTG: the binding signal (log2 normalized intensity) is -1.04. For GGAGGAGCTGTTTGACATCCAAAGTTTCCT the value was 0.813; for GCAGCTGAGGATTGTCAGGCCAGTAGGTCA, 1.56.

With AAAGCTTCTGCGGAAATAATTGATTCAGGT, the binding signal (log2 normalized intensity) was found to be 1.06.

ATTCATAAAATTACGCCACAGAGTTGCTGT: the binding signal (log2 normalized intensity) worked out at 0.195. With ATTAAGATCAAAGAATTCCTAATAATACTG, the binding signal (log2 normalized intensity) is -1.17.
